# Hit rate of the full screen: of about 52,000 compounds, about 1,700 (3.3%) were called active. No stated cut-off is given here; in the data, active means survival mostly below about 52% (no sharp cut-off); inactive means mostly above about 56%. The list shows a part of the results.
# System: Wild type
# Test: S. aureus survival, RN4220 and DeltatarO strains – OD600, teichoic acid synthesis inhibitors, primary screen (AID 463173)
# Conditions: S. aureus RN4220 wild type/DeltatarO growth, OD600, 18 h, active compounds read low, screened at 18.75 µg/mL (by protocol)
row,Structure (SMILES),survival
1,COc1ccc(NC(=O)CSc2nc3ccccc3n2Cc2cccc(OC)c2)cc1,inactive: 159%
2,COc1ccc2c(CNCCc3ccco3)c(C(=O)O)n(Cc3ccccc3)c2c1,inactive: 115%
3,CCOC(=O)c1ccccc1NC(=O)c1ccncc1,inactive: 94%
4,Cc1cc(S(=O)(=O)Nc2ccc(-c3ccc(N4CCCCCC4)nn3)cc2)c(C)cc1Cl,inactive: 69%
5,COCCNC(=O)c1cccc(-n2c(C)nc3cccnc32)c1,inactive: 66%
6,Cc1nc(-c2cccnc2)sc1CCNS(=O)(=O)c1ccc(F)cc1,inactive: 83%
7,CCc1sc(Nc2cccc(C)c2C)nc1-c1cc2cccc(OC)c2oc1=O,inactive: 71%
8,COc1ccc(-c2cc(C(F)(F)F)nc(SCC(=O)NCCc3ccccc3)n2)cc1OC,inactive: 81%
9,Cc1ccc(NC(=O)c2cc(S(=O)(=O)N3CCc4ccccc43)ccc2F)cc1Cl,inactive: 76%
10,COc1cc(CNn2cnnc2)ccc1OCC(=O)NC(C)(C)C,inactive: 101%
11,COc1cc(OC)cc(-n2c(=O)c3sccc3n(Cc3c(C)cc(C)cc3C)c2=O)c1,inactive: 141%
12,COc1cccc(C(=O)Nc2cccc(-c3cn4c(C)csc4n3)c2)c1OC,inactive: 120%
13,O=C(Nc1cccc(Cl)c1)c1cc2c(=O)[nH]c3ccccc3c2s1,inactive: 63%
14,Cc1cccc(N2CCN(C(=O)CCn3c(=O)c4cccn4c4cccnc43)CC2C)c1 (centres undefined),inactive: 76%
15,Cc1cccc(-c2nc3c4ccccc4nc(N4CCN(c5cc(C)ccc5C)CC4)n3n2)c1,inactive: 132%
16,O=C(Nc1ccc(-c2cn3cccnc3n2)cc1)c1cc(Br)ccc1Cl,inactive: 87%
17,Cc1nnc(N2CCCC(C(=O)NCCc3ccc(Cl)cc3)C2)c2nn(-c3ccccc3)c(C)c12 (centres undefined),inactive: 68%
18,CCOc1ccc(-c2nn(CC(=O)NC3CCCC3)c3c2cnc2ccc(F)cc23)cc1,inactive: 148%
19,CCc1ccccc1NC(=O)c1cnc2sc(N3CCCC3)nn2c1=O,inactive: 126%
20,CC(=O)N1CC=C2C(C#N)=C(N)C(C#N)(C#N)C(Cc3ccccc3)C2C1 (centres undefined),inactive: 118%
21,COc1cccc(N2CCN(C(=O)Cn3c(-c4cccs4)cc4ccccc43)CC2)c1,inactive: 126%
22,COc1ccc(CN2C(=O)c3ccccc3C2C(=O)NCCc2ccccc2)c(OC)c1 (centres undefined),inactive: 87%
23,CC1=C(C(=O)Nc2ccc(C)cc2C)C(c2cccs2)n2nc(SCc3ccccc3Cl)nc2N1 (centres undefined),inactive: 76%

row,Structure (SMILES),survival
1,CCN(Cc1ccccc1)C(=O)Cn1c(=O)n(-c2ccc(C)c(C)c2)c(=O)c2c(C)c(C)sc21,inactive: 91%
2,O=c1oc2ccccc2cc1-c1cn2cc(Cc3ccc(Cl)cc3)sc2n1,inactive: 80%
3,O=c1cc(-c2ccccc2)n2c(SCc3ccc(F)cc3)nnc2[nH]1,inactive: 102%
4,Cc1cn2c(=O)cc(COC(=O)COc3ccccc3C)nc2s1,inactive: 60%
5,CCOC(=O)c1cnc2c(C)c(C)ccc2c1NCCCCCO,inactive: 110%
6,CCOC(=O)c1c(C)[nH]c(CCC(=O)NCc2ccc(N(C)C)cc2)c1C,inactive: 73%
7,CCn1cc(C(=O)N2CCN(c3ccccc3F)CC2)c(=O)c2cc(S(=O)(=O)N(C)C)ccc21,inactive: 132%
8,O=C(Nc1cccc(C(F)(F)F)c1)c1cc2ccc3cccnc3c2[nH]1,inactive: 68%
9,Cc1ccc(-c2nc(C)c(CCNS(=O)(=O)c3ccc(F)c(C(F)(F)F)c3)s2)cc1,active: -6%
10,COc1ccc(CNc2oc(-c3ccc(COc4ccccc4C)o3)nc2C#N)cc1,inactive: 89%
11,Cc1ccc(C)c(OC(=O)CSc2nnc(CNC(=O)c3ccccc3)o2)c1,inactive: 114%
12,O=C(N/N=C/c1c(O)ccc2ccccc12)C1CC12CCC2 (centres undefined),inactive: 131%
13,CC1=C(c2ccc(C)cc2)S(=O)(=O)NC1=NCCCN1CCN(c2ccc(F)cc2)CC1,inactive: 60%
14,Cc1ccc(NC(=O)CSc2nc(-c3ccco3)cc(C(F)(F)F)n2)cc1,inactive: 137%
15,Cc1ccc(NC(=O)CN2C(=O)CCSc3ccc(S(=O)(=O)N4CCCC4)cc32)cc1C,inactive: 78%
16,CC(C)c1ccc(OC(=O)c2cc(-c3ccccc3)on2)cc1,inactive: 106%
17,CCOc1ccc(-n2nc3ccc(NC(=O)COc4ccc(OC)cc4)cc3n2)cc1,inactive: 95%
18,CCN(CC)c1ccc(NC(=O)CSc2nc(-c3cccs3)cc(C(F)(F)F)n2)cc1,inactive: 124%
19,Cc1ccc(NC(=O)Nc2nnc(N(C)Cc3ccccc3)s2)c(C)c1,inactive: 90%
20,CCN(CC)c1ccc(NS(=O)(=O)c2cc3[nH]c(=O)c(=O)[nH]c3cc2C)c(C)c1,inactive: 71%
21,Cc1cc2oc(C(=O)Nc3ccc(S(=O)(=O)N4CCCCCC4)cc3)cc(=O)c2cc1C,inactive: 80%
22,COc1cc(C)cc2oc(=O)c(CC(=O)NCc3cccc(Cl)c3)c(C)c12,inactive: 75%
23,CCc1nc(Oc2cccc(F)c2)c2oc3ccccc3c2n1,inactive: 81%

row,Structure (SMILES),survival
1,CC(=O)N1CCc2c(sc3nc(SCC(C)C)n(-c4ccc(F)c(Cl)c4)c(=O)c23)C1,inactive: 106%
2,CCCSc1ncc(Cl)c(C(=O)Nc2c(C(=O)Nc3ccc(C)cc3)oc3ccccc23)n1,inactive: 81%
3,O=C(NCCN1CCCC1)c1ccc2c(c1)OCCO2,inactive: 97%
4,COC(=O)c1ccc(C2C(C(=O)Nc3ccccc3)=C(C)Nc3nc4ccccc4n32)cc1 (centres undefined),inactive: 77%
5,Cc1ccc(Nc2nc(C)nc(N)c2S(=O)(=O)c2ccccc2)cc1,inactive: 74%
6,CC1=C(C(=O)Nc2ccccc2)C(c2cccn2C)n2ncnc2N1 (centres undefined),inactive: 76%
7,Cc1ccc(C)c(Cn2c(C3CC(=O)N(c4ccccc4C)C3)nc3ccccc32)c1 (centres undefined),inactive: 86%
8,CCN(CC)c1ccc(-c2nc(-c3ccccc3C)no2)cc1[N+](=O)[O-],inactive: 86%
9,O=C(NCCc1ccccc1Cl)c1ccc2c(c1)nc1n2CCCCC1,inactive: 87%
10,COc1ccc(Cn2c(=O)c3oc4ccccc4c3n(CC(=O)Nc3ccc(F)cc3F)c2=O)cc1,inactive: 76%
11,Cc1ccc(Cl)cc1N1CCN(Cc2nnc(-c3ccc4c(c3)OCO4)o2)CC1,inactive: 84%
12,CC(C)(C)c1ccc(C(=O)NC2CCNCC2)cc1,inactive: 108%
13,Cc1cc(NC(=O)C2CCN(S(=O)(=O)c3ccc(Br)s3)CC2)ccc1Br,inactive: 71%
14,Cc1ccc(NC(=O)C2C3C=CC4(O3)C2C(=O)N(c2ccccc2F)C4C(=O)NC2CCCC2)cc1 (centres undefined),inactive: 84%
15,O=S(=O)(c1ccc2nc(N3CCN(c4cccc(Cl)c4)CC3)ccc2c1)N1CCCCC1,inactive: 55%
16,Cc1ccc(CNC(=O)CSc2n[nH]c(-c3ccc(F)cc3)n2)cc1,inactive: 124%
17,O=C(N/N=C/c1ccccc1)c1[nH]ncc1I,inactive: 105%
18,Fc1ccc(-c2noc3ncnc(NCCCN4CCN(c5ccccc5)CC4)c23)cc1,inactive: 71%
19,Cc1ccc2c(=O)cc(C(=O)Nc3sc4c(c3C(=O)NCc3cccnc3)CCCC4)oc2c1C,inactive: 117%
20,COc1ccc(Cn2ccc3nc(C)c(C(=O)NCc4ccc(F)cc4)cc3c2=O)cc1,inactive: 101%
21,O=c1oc2c(CN3CCN(CCO)CC3)c(O)ccc2cc1-c1ccccc1,inactive: 74%
22,COc1ccc(C(=O)NCC(c2ccc(N(C)C)cc2)N2CCc3ccccc32)c(OC)c1 (centres undefined),inactive: 79%
23,COc1cccc(NC(=O)CC2NCCNC2=O)c1 (centres undefined),inactive: 85%

row,Structure (SMILES),survival
1,Cc1ccc(NC(=O)CCc2c(C)nc3cc(-c4ccccc4)nn3c2C)cc1F,inactive: 68%
2,COc1ccc(-c2nc3c(C#N)c[nH]n3c2NC2CCCC2)c(OC)c1,inactive: 83%
3,CCc1cc(C(=O)Nc2cnn(Cc3ccccc3C)c2)no1,inactive: 84%
4,COc1ccc(S(=O)(=O)NCC(c2ccco2)N2CCOCC2)cc1OC (centres undefined),inactive: 76%
5,CCCCCNC(=O)CCCCCn1c(=O)[nH]c2ccsc2c1=O,inactive: 62%
6,COc1ccc(CNC(=O)C2CCN(c3nc4ccccc4[nH]3)CC2)cc1OC,inactive: 47%
7,O=C(Nc1sc2c(c1C(=O)NCC1CCCO1)CCC2)c1cc(=O)c2ccccc2o1 (centres undefined),inactive: 82%
8,Cc1nc2cc(N3CCN(C)CC3)c(NC(=O)C3CC3)cc2c(=O)n1Cc1ccccc1,inactive: 112%
9,COCCCNc1oc(-c2ccc(COc3ccc(Cl)cc3)o2)nc1C#N,inactive: 47%
10,COc1ccc(Cn2c(=O)c3oc4ccccc4c3n(Cc3ccc(Cl)cc3)c2=O)cc1,inactive: 119%
11,CCOC(=O)c1c(S(=O)(=O)N2CCCC(C(=O)Nc3cccc(C)n3)C2)c(C)n(C)c1C (centres undefined),inactive: 82%
12,CCOc1ccc(C2CC(=O)Nc3c2c(=O)nc(SCc2ccccc2C)n3C)cc1OC (centres undefined),inactive: 80%
13,CCn1cc(C(=O)OCC(=O)Nc2cccc(C(C)=O)c2)c(=O)c2ccc(C)nc21,inactive: 77%
14,Cc1ccc2c(=O)cc(C(=O)Nc3cccc(C(F)(F)F)c3)oc2c1C,inactive: 80%
15,Cc1cccn2c(=O)c3cc(C(=O)NC(C)c4ccccc4)c(=N)n(CCCO)c3nc12 (centres undefined),inactive: 77%
16,CCOC(=O)c1c(C)[nH]c(C)c1S(=O)(=O)N1CCCC(C(=O)N2CCN(c3ccccc3)CC2)C1 (centres undefined),inactive: 91%
17,CCOCCc1nn2c(=O)cc(COC(=O)C3CCCCC3)nc2s1,inactive: 72%
18,COC(=O)c1ccc(OCC2c3cc(OC)c(OC)cc3CCN2C(=O)c2ccc(F)cc2)cc1 (centres undefined),inactive: 88%
19,O=C(Cn1nnc(-c2ccccc2Cl)n1)Nc1ccc(Br)cc1,inactive: 75%
20,Cc1ccc(NC(=O)CSc2nnc3scc(-c4ccccc4)n23)cc1,inactive: 43%
